{"source": "the supplement of paper PMC9446081", "note": "The whole screen tested about 39,000 compounds, of which about 220 (0.56%) showed activity. This is one part of the list.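 Note: static incubation at 37 °C against the wild-type strain, values averaged over two biological replicates.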", "data": [{"test_system": "Escherichia coli K-12 BW25113", "assay": "relative growth (OD600 normalised to plate interquartile mean) (fraction); higher = less growth inhibition, active = 0.2 or less", "conditions": "50 µM; LB; incubation time: overnight (16-24 h)", "values": [{"smiles": "CCOC(=O)c1ncn2c1C(=O)OC2(C)C", "relative growth": "inactive: 0.987"}, {"smiles": "C[C@H]1CN([C@@H](C)CO)C(=O)c2cccc(NC(=O)c3ccc(-c4nccs4)cc3)c2O[C@H]1CN(C)Cc1ccc2c(c1)OCO2", "relative growth": "inactive: 1.01"}, {"smiles": "C[C@H](CO)N1C[C@H](C)[C@@H](CN(C)S(=O)(=O)c2ccc(Oc3ccccc3)cc2)OCc2cnnn2CCCC1=O", "relative growth": "inactive: 0.992"}, {"smiles": "C[C@H]1CN([C@@H](C)CO)C(=O)Cc2cc(NC(=O)c3ccncc3)ccc2O[C@H]1CN(C)S(C)(=O)=O", "relative growth": "inactive: 1.01"}, {"smiles": "CCCCC(CC)COC(=O)C=Cc1ccc(OC)cc1", "note": "(centres undefined)", "relative growth": "inactive: 0.948"}, {"smiles": "C[C@@H]1CCCCO[C@H](CN(C)Cc2ccncc2)[C@H](C)CN([C@H](C)CO)C(=O)c2cc(NC(=O)Nc3ccc4c(c3)OCO4)ccc2O1", "relative growth": "inactive: 0.998"}, {"smiles": "COc1ccc(S(=O)(=O)N(C)C[C@@H]2Oc3ccc(NS(=O)(=O)c4cn(C)cn4)cc3C(=O)N([C@H](C)CO)C[C@@H]2C)cc1", "relative growth": "inactive: 0.966"}, {"smiles": "Cc1noc(C)c1S(=O)(=O)Nc1ccc2c(c1)C(=O)N([C@@H](C)CO)C[C@@H](C)[C@@H](CN(C)C(=O)Nc1ccccc1)O2", "relative growth": "inactive: 1.01"}, {"smiles": "COC(=O)c1cccc(C(=O)OC)n1", "relative growth": "inactive: 1.02"}, {"smiles": "C[C@@H]1CCCCO[C@H](CN(C)S(=O)(=O)c2ccc(Cl)cc2)[C@@H](C)CN([C@@H](C)CO)C(=O)c2cc(NC(=O)Nc3ccc4c(c3)OCO4)ccc2O1", "relative growth": "inactive: 1.06"}, {"smiles": "CN1C[C@H](O)COC[C@@H]2O[C@@H](CC(=O)N3CCN(c4ccccc4)CC3)CC[C@H]21", "relative growth": "inactive: 1.03"}, {"smiles": "CCCCCCCCc1ccc(-c2ccc(C(=O)O)cc2)cc1", "relative growth": "inactive: 1.02"}, {"smiles": "C=C1c2cccc(O)c2C(=O)C2=C(O)[C@]3(O)C(O)=C(C(N)=O)C(=O)[C@@H](N(C)C)[C@@H]3[C@@H](O)[C@H]12", "relative growth": "inactive: 0.225"}, {"smiles": "CS(=O)(=O)c1ccccc1CC(=O)O", "relative growth": "inactive: 0.999"}, {"smiles": "COCCNC(=O)[C@@H]1[C@@H](CO)[C@@H]2Cn3c(ccc(-c4ccccc4F)c3=O)[C@H]1N2S(C)(=O)=O", "relative growth": "inactive: 1.01"}, {"smiles": "CNC(=O)C[C@@H]1C[C@@H]2CN(S(=O)(=O)c3cccnc3)C[C@@H]2O1", "relative growth": "inactive: 1.01"}, {"smiles": "COC[C@H]1CN(C(=O)c2ccccn2)N1", "relative growth": "inactive: 1"}, {"smiles": "C[C@H]1CN([C@@H](C)CO)C(=O)Cc2cc(NC(=O)Nc3ccc4c(c3)OCO4)ccc2O[C@H]1CN(C)C(=O)Nc1ccc(C(F)(F)F)cc1", "relative growth": "inactive: 1.01"}, {"smiles": "O=c1/c(=C/c2cccc(Cl)c2)c2cccc3cccc1c32", "relative growth": "inactive: 0.986"}, {"smiles": "CCCCCCC#C[Si](O[C@H](c1ccccc1)c1cn([C@H](CO)Cc2ccccc2)nn1)(C(C)C)C(C)C", "relative growth": "inactive: 1"}, {"smiles": "OCC1OC(OC2(CCl)OC(CCl)C(O)C2O)C(O)C(O)C1Cl", "note": "(centres undefined)", "relative growth": "inactive: 1.03"}, {"smiles": "C[C@@H]1CN([C@H](C)CO)C(=O)c2cccc(NC(=O)Nc3cccc4ccccc34)c2O[C@@H]1CN(C)Cc1ccc(C(=O)O)cc1", "relative growth": "inactive: 1.01"}, {"smiles": "COC(=O)c1c2oc(c1C(=O)OC)C(=O)N[C@@H](Cc1ccccc1)Cn1cc(nn1)[C@@H](Cc1ccccc1)NC(=O)N[C@@H](COC(=O)NCCCCCC(=O)NO)CC2", "relative growth": "inactive: 1.01"}, {"smiles": "C[C@H](CO)N1C[C@H](C)[C@H](CN(C)S(=O)(=O)c2cn(C)cn2)Oc2ccc(NC(=O)Cc3cn(C)c4ccccc34)cc2CC1=O", "relative growth": "inactive: 1.01"}, {"smiles": "C[C@@H]1CN([C@H](C)CO)C(=O)Cc2cc(NC(=O)C3CCCCC3)ccc2O[C@@H]1CN(C)C(=O)Nc1ccc(C(F)(F)F)cc1", "relative growth": "inactive: 0.99"}, {"smiles": "COc1cc2nc(N3CCN(C(=O)C4CCCO4)CC3)nc(N)c2cc1OC.Cl", "note": "(centres undefined)", "relative growth": "inactive: 0.895"}, {"smiles": "CC(C)NC(=O)Nc1ccc2c(c1)C(=O)N([C@@H](C)CO)C[C@@H](C)[C@H](CN(C)C(=O)C1CCCCC1)OCCCC[C@H](C)O2", "relative growth": "inactive: 0.949"}, {"smiles": "C[C@@H]1CCCCO[C@H](CN(C)C(=O)NC2CCCCC2)[C@@H](C)CN([C@@H](C)CO)C(=O)c2cc(NC(=O)NC3CCCCC3)ccc2O1", "relative growth": "inactive: 1.01"}, {"smiles": "COc1ccc(NC(=O)N(C)C[C@@H]2OCc3cnnn3CCCC(=O)N([C@@H](C)CO)C[C@H]2C)c(OC)c1", "relative growth": "inactive: 1.01"}, {"smiles": "Cc1ccc(S(=O)(=O)N(C)C[C@H]2Oc3ncc(Br)cc3C(=O)N([C@@H](C)CO)C[C@H]2C)cc1", "relative growth": "inactive: 0.998"}, {"smiles": "COc1ccc(NC(=O)N(C)C[C@H]2Oc3ccc(NS(=O)(=O)c4c(C)noc4C)cc3CC(=O)N([C@@H](C)CO)C[C@H]2C)cc1", "relative growth": "inactive: 0.967"}, {"smiles": "Cc1noc(C)c1NC(=O)N(C)C[C@H]1OCCCC[C@@H](C)Oc2ccc(NS(=O)(=O)c3ccccc3)cc2C(=O)N([C@@H](C)CO)C[C@H]1C", "relative growth": "inactive: 1.01"}, {"smiles": "CC(C)NC(=O)N(C)C[C@H]1Oc2ccc(NS(=O)(=O)c3cccs3)cc2CC(=O)N([C@H](C)CO)C[C@@H]1C", "relative growth": "inactive: 0.991"}, {"smiles": "CC(C)(C)NC(=O)C1CN(Cc2cccnc2)CCN1CC(O)CC(Cc1ccccc1)C(=O)NC1c2ccccc2CC1O", "note": "(centres undefined)", "relative growth": "inactive: 0.915"}, {"smiles": "O=C(C[C@@H]1CC[C@@H]2[C@H](COC[C@H](O)CN2C(=O)Nc2ccc(C(F)(F)F)cc2)O1)NCc1ccncn1", "relative growth": "inactive: 0.977"}, {"smiles": "COc1cccc(S(=O)(=O)N2C[C@@H](O)COC[C@@H]3O[C@H](CC(=O)N4CCOCC4)CC[C@H]32)c1", "relative growth": "inactive: 1.02"}, {"smiles": "N[C@@H](CSCC(=O)O)C(=O)O", "relative growth": "inactive: 0.983"}, {"smiles": "C[C@@H]1CN([C@@H](C)CO)C(=O)c2cccc(NC(=O)NC3CCCCC3)c2O[C@H]1CN(C)S(=O)(=O)c1cn(C)cn1", "relative growth": "inactive: 1.01"}, {"smiles": "CC(C(=O)O)c1cccc(C(=O)c2ccccc2)c1", "note": "(centres undefined)", "relative growth": "inactive: 1.01"}, {"smiles": "COc1nc(N)nc2nc[nH]c12", "relative growth": "inactive: 0.993"}, {"smiles": "CC(C)NC(=O)Nc1ccc2c(c1)C(=O)N([C@@H](C)CO)C[C@H](C)[C@H](CN(C)S(=O)(=O)c1cn(C)cn1)O2", "relative growth": "inactive: 1.01"}, {"smiles": "C[C@H](CO)N1C[C@H](C)[C@@H](CN(C)S(=O)(=O)c2ccc(Cl)cc2)Oc2ccc(NC(=O)Cn3cnnn3)cc2CC1=O", "relative growth": "inactive: 1.01"}, {"smiles": "COc1ccccc1C#Cc1cnc2c(c1)C(=O)N([C@@H](C)CO)C[C@@H](C)[C@@H](CN(C)C(=O)c1ccc3c(c1)OCO3)O2", "relative growth": "inactive: 1.03"}, {"smiles": "Cc1ccc(S(=O)(=O)N(C)C[C@@H]2OCCCC[C@@H](C)Oc3ccc(NS(=O)(=O)c4ccc(F)cc4)cc3C(=O)N([C@@H](C)CO)C[C@H]2C)cc1", "relative growth": "inactive: 1.02"}, {"smiles": "C[C@@H]1CN([C@@H](C)CO)C(=O)c2cc(-c3ccc(C(=O)N(C)C)cc3)cnc2O[C@@H]1CN(C)C(=O)c1cccnc1", "relative growth": "inactive: 0.998"}, {"smiles": "Cc1noc(C)c1NC(=O)N(C)C[C@H]1Oc2ccc(NC(=O)C3CC3)cc2CC(=O)N([C@H](C)CO)C[C@@H]1C", "relative growth": "inactive: 0.993"}, {"smiles": "CC(=O)O[C@@H]1[C@@H]2C[C@@H]([C@H]1OC(C)=O)[C@@H]1C(=O)N(C)C(=O)[C@@H]21", "relative growth": "inactive: 0.936"}, {"smiles": "COc1ccc(NC(=O)Nc2ccc3c(c2)[C@@H]2C[C@H](CC(=O)N4CCN(C)CC4)O[C@@H](CO)[C@@H]2O3)cc1", "relative growth": "inactive: 1"}, {"smiles": "C[C@H](CO)N1C[C@H](C)[C@H](CN(C)Cc2ccc(Oc3ccccc3)cc2)Oc2ccc(NC(=O)Nc3cccc4ccccc34)cc2CC1=O", "relative growth": "inactive: 1.02"}, {"smiles": "CCS(=O)(=O)N1CC[C@]2(CC1)CN([C@H](CO)c1c2c2ccc(cc2n1C)OC)S(=O)(=O)c1ccccc1", "relative growth": "inactive: 0.996"}, {"smiles": "C[C@H]1CN([C@@H](C)CO)C(=O)CCCn2cc(nn2)CO[C@H]1CN(C)C(=O)C1CC1", "relative growth": "inactive: 1.02"}, {"smiles": "O=C(CO)N1C[C@H]2C[C@@H]1C[C@@H]2Oc1cccnc1", "relative growth": "inactive: 1.04"}, {"smiles": "COc1cccc(S(=O)(=O)N2C[C@H](O)COC[C@@H]3O[C@@H](CC(=O)N4CCOCC4)CC[C@H]32)c1", "relative growth": "inactive: 0.982"}, {"smiles": "O=C(C[C@H]1C[C@@H]2c3cc(NS(=O)(=O)c4ccc(F)cc4)ccc3O[C@@H]2[C@H](CO)O1)NCCc1ccccc1", "relative growth": "inactive: 1.02"}, {"smiles": "C[C@@H]1CN([C@@H](C)CO)C(=O)c2cccc(NC(=O)c3ccc(-c4nccs4)cc3)c2O[C@H]1CN(C)C(=O)Nc1ccc2c(c1)OCO2", "relative growth": "inactive: 0.99"}, {"smiles": "CCN(CCCCOC(=O)c1ccc(OC)c(OC)c1)C(C)Cc1ccc(OC)cc1.Cl", "note": "(centres undefined)", "relative growth": "inactive: 0.95"}, {"smiles": "COC(=O)c1sc2ncn(N)c(=O)c2c1C", "relative growth": "inactive: 0.999"}, {"smiles": "O=C(C[C@H]1C[C@H]2c3cc(NS(=O)(=O)c4ccccc4)ccc3O[C@H]2[C@H](CO)O1)NC1CCCCC1", "relative growth": "inactive: 0.976"}, {"smiles": "COc1ccc(S(=O)(=O)Nc2ccc3c(c2)CC(=O)N([C@H](C)CO)C[C@@H](C)[C@@H](CN(C)Cc2ccncc2)O3)cc1", "relative growth": "inactive: 0.992"}, {"smiles": "C[C@@H]1CN([C@H](C)CO)C(=O)c2cc(NC(=O)CCC(F)(F)F)ccc2O[C@@H]1CN(C)C(=O)Nc1cccc2ccccc12", "relative growth": "inactive: 0.985"}, {"smiles": "C=CCCC(=O)N(C)[C@H](C)[C@H](OC(=O)[C@@H]1[C@@H]2C=C[C@]3(O2)[C@H](C(=O)N(CC=C)Cc2ccccc2)N(Cc2ccc(OC)cc2)C(=O)[C@@H]13)c1ccccc1", "relative growth": "inactive: 1.03"}, {"smiles": "Cc1cc(C(=O)Nc2cccc3c2O[C@@H](CN(C)C(=O)Nc2ccc4c(c2)OCO4)[C@@H](C)CN([C@@H](C)CO)C3=O)n(C)n1", "relative growth": "inactive: 0.987"}, {"smiles": "CO[C@H](CCO)[C@H](O)c1ccc(O)c(F)c1", "relative growth": "inactive: 0.93"}, {"smiles": "Cc1noc(C)c1NC(=O)Nc1cccc2c1O[C@@H](CN(C)Cc1ccc(Oc3ccccc3)cc1)[C@@H](C)CN([C@@H](C)CO)C2=O", "relative growth": "inactive: 0.982"}]}]}
